# Assay results taken from PubChem BioAssay (NCATS).
# The shares of active, inactive and inconclusive entries below differ from those in the screen. Potencies of inconclusive entries are left out as doubtful fits. Active and inactive are the calls of the source. Calls follow the shape of the dose curve; as a rule, active = well fitted cell-killing curve with a large enough effect; inconclusive = small, poorly fitted or top-dose-only effect; inactive = no such curve, though single readings can be large or run the other way.
# Assay: qHTS of pediatric cancer cell lines to identify multiple opportunities for drug repurposing: Primary screen for SJ-GBM2 cells (AID 1347091)
# Conditions: SJ-GBM2 viability, CellTiter-Glo luminescence, 48 h; series mostly up to 46 µM
# How it was run: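 Eight- or eleven-point concentration series, 48 h treatment at 37 degrees C in growth media; readout CellTiter-Glo luminescence. Potency and efficacy were taken from the concentration-response curves.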
# Potency is read from the fitted curve at half-maximal effect; tags tell the direction and shape of the fitted curve.
row,SMILES,Potency
1,CC[C@H]1OC(=O)[C@H](C)[C@@H](O[C@H]2C[C@@](C)(OC)[C@@H](O)[C@H](C)O2)[C@H](C)[C@@H](O[C@@H]2O[C@H](C)C[C@H](N(C)C)[C@@H]2O)[C@](C)(OC)C[C@@H](C)C(=O)[C@H](C)[C@@H](O)[C@]1(C)O,inactive
2,CCN(CC)CCOc1ccc(C(=C(Cl)c2ccccc2)c2ccccc2)cc1,"inconclusive [cytotoxic, single point]"
3,Cc1cc(C(=O)NOCCO)c(Nc2ccc(I)cc2F)n(C)c1=O,inactive
4,Nc1nc2c(ncn2COCCO)c(=O)[nH]1,"inconclusive [cytotoxic, single point]"
5,CCN(CCO)CCCC(C)Nc1ccnc2cc(Cl)ccc12 (stereo not given),"inconclusive [cytotoxic, partial curve]"
